About 50,000 (12%) of roughly 420,000 compounds were called active. The inconclusive results got no clear call from the source; some entries with a clear call stand among them for comparison. Calls come from the whole dose curve; as a rule, active = well fitted inhibition curve with a large enough effect; inconclusive = small, poorly fitted or top-dose-only effect; inactive = flat fitted curve, though single readings scatter. A potency beside an inconclusive call is a rough fit, not a confirmed value.
Assay: qHTS for Inhibitors of human tyrosyl-DNA phosphodiesterase 1 (TDP1): qHTS in cells in presence of CPT; note: nearly all actives have a fitted effect of over 55% in size
Conditions: chicken DT40 Tdp1-/-;hTDP1 cells + 20 nM CPT, ATP luminescence, 48 h; activity change, negative = growth inhibition: at 46.2 µM (top of the series) unless noted
Method in brief: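 Chicken DT40 Tdp1-/- cells stably complemented with human TDP1 were seeded at 400 cells/well in medium containing 20 nM camptothecin, exposed to pin-transferred compounds, and grown at 37 °C for at least 48 hr. Viability was read as ATP luminescence.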
% is set by controls: 0 for no effect and ±100 for the full control effect; potency is the fitted concentration of half-maximal effect; tags give direction and shape of the fitted curve.

Row | SMILES | Potency | activity change, negative = growth inhibition
1 | COc1ccc(N2CCN(C(=O)COC(=O)c3oc4ccccc4c3C)CC2)cc1 | active: 20.6 µM | 
2 | CN(Cc1ccccc1)C(C(=O)NC1CCCCC1)c1ccc(Cl)cc1 (stereo not drawn) |  | inactive: -1.96%
3 | Cc1nnn(C23CC4CC(CC(CC(=O)Nc5ccc(C)c(C)c5)(C4)C2)C3)n1 |  | inactive: -18.1%
4 | COc1cc(OC)c(NC(=O)CCn2cccn2)cc1Cl |  | inactive: 21.2%
5 | CCOC(=O)c1cnc2c(OC)cccc2c1NCc1cccnc1 |  | inactive: -4.62%
6 | Cc1cc(C(=O)NC(=S)Nc2cccc(C(=O)O)c2C)ccc1[N+](=O)[O-] |  | inactive: -1.1%
7 | Cc1ccc(N2C(=O)c3ccccc3NC2C(C)Cc2ccc3c(c2)OCO3)cc1 (stereo not drawn) | inconclusive: 18.4 µM [inhibitor, single point] | 
8 | CC1CCCC(C)N1CC(O)COc1c(F)cc(Br)cc1F (stereo not drawn) | inconclusive: 23.1 µM [inhibitor, single point] | 
9 | COc1ccc(S(=O)(=O)NCc2ccncc2)cc1NC(=O)c1ccccc1C | inconclusive: 32.6 µM [inhibitor, single point] | 
10 | CC1CCCCC1NC(=O)c1ccc2c(c1)OCCO2 (stereo not drawn) |  | inactive: -20.7%
11 | C#CCSC1=C(C#N)C(c2cccs2)C(C(=O)OCC)=C(C)N1 (stereo not drawn) | inconclusive: 32.6 µM [inhibitor, single point] | 
12 | O=C(Nc1cccc(Cl)c1)C1CCCN(S(=O)(=O)c2cnc[nH]2)C1 (stereo not drawn) | inconclusive: 16.4 µM [inhibitor, single point] | 
13 | Cc1ccc2cccnc2c1NC(=S)NC(=O)c1ccccc1 | inconclusive: 29.1 µM [inhibitor, single point] | 
14 | O=C(NCc1ccccc1)C1CCCN(C(=O)c2ccc(F)cc2)C1 (stereo not drawn) |  | inactive: -0.687%
15 | O=S(CC(O)(c1ccccc1)c1ccccc1)CC(O)(c1ccccc1)c1ccccc1 | active: 18.4 µM | 
16 | Cc1ccc(Cc2c(C)nc3nc(SCC(=O)NCc4ccco4)nn3c2C)cc1 | active: 3.26 µM | 
17 | CCC(NC(=O)c1[nH]c(C)c(C(C)=O)c1C)c1ccc(Br)cc1 (stereo not drawn) | inconclusive: 29.1 µM [inhibitor, single point] | 
18 | CCN1C(=O)[C@H]2[C@@H](c3ccc(-c4ccc(Cl)c(Cl)c4)cc3)N[C@@](Cc3ccccc3)(C(=O)OC)[C@H]2C1=O | active: 23.1 µM | 
19 | COCCN(C(=O)COC(=O)c1ccccc1Nc1ccccc1)c1c(N)n(Cc2ccccc2)c(=O)[nH]c1=O | active: 20.6 µM | 
20 | COc1cc(-c2noc(-c3ccc(N4CCOCC4)c([N+](=O)[O-])c3)n2)cc(OC)c1OC | inconclusive: 7.31 µM [inhibitor, partial curve] | 
21 | C=CC[C@H](CC(=O)OC(C)(C)C)C(=O)OC[C@H]1CCCN1C(=O)[C@@H](CC=C)CC(=O)N(CCO)Cc1ccccc1 | active: 18.4 µM | 
22 | Cc1[nH]c2ccc(F)cc2c(=O)c1SC(F)(F)C(F)C(F)(F)F (stereo not drawn) | inconclusive: 29.1 µM [inhibitor, single point] | 
23 | c1cncc(OC2CCN(Cc3ccc4c(c3)CN(Cc3ccc5c(c3)OCCO5)CCO4)CC2)c1 | inconclusive: 29.1 µM [inhibitor, single point] | 
24 | Cc1c2cnn(-c3ccccc3)c(=O)c2c(C)n1CC(=O)N1CCN(c2ccc(F)cc2)CC1 | active: 20.6 µM | 
25 | CN(C(=O)c1cccc(NC(=O)Cc2ccc(NC(=O)C3CCN(C(=O)c4ccccc4)CC3)cc2)c1)C1CCCCC1 | active: 23.1 µM | 

Row | SMILES | Potency | activity change, negative = growth inhibition
26 | CCN(CCCNC(=O)CSc1cc(=O)n(C)c2cc(Cl)ccc12)c1cccc(C)c1 | inconclusive: 18.4 µM [inhibitor, single point] | 
27 | COc1ccc(S(=O)(=O)N2CCOCC2)cc1C(C)C | inconclusive: 20.6 µM [inhibitor, single point] | 
28 | COc1cccc(C(=O)C(=O)N2CCN(C(=O)OCc3ccccc3)CC2)c1 | inconclusive: 29.1 µM [inhibitor, single point] | 
29 | COc1ccc(CCN2C(=O)N[C@@H](CCC(=O)O)C2=O)cc1 | inconclusive: 6.51 µM [inhibitor, single point] | 
30 | CCN(Cc1ccccc1)S(=O)(=O)c1ccc(S(=O)(=O)N(Cc2cccc(OC)c2)CC2CCCO2)cc1 (stereo not drawn) | inconclusive: 17.8 µM [inhibitor, partial curve] | 
31 | Cc1ccc(OCC(=O)N(Cc2ccco2)Cc2ccco2)cc1 | inconclusive: 18.4 µM [inhibitor, single point] | 
32 | C=CCc1ccccc1OCC(=O)OCCNC(=O)c1cccnc1 |  | inactive: -25.5%
33 | COC(c1ccccc1)(c1ccccc1)C(Oc1nccc(C)n1)C(=O)O (stereo not drawn) |  | inactive: 9.84%
34 | Cc1cc(Cl)ccc1OCC(=O)NCCCn1ccnc1 |  | inactive: -23.2%
35 | CN(C1CCCCC1)S(=O)(=O)c1ccc(NC(=O)C2CCCCC2)cc1 | active: 16.4 µM | 
36 | Oc1c(C(c2ccc(Br)cc2)N2CCOCC2)sc2nc(-c3ccco3)nn12 (stereo not drawn) |  | inactive: -4.71%
37 | O=C1NC(c2ccc(-c3ccccc3[N+](=O)[O-])o2)C(C(=O)c2ccc(Cl)cc2)C(O)(C(F)(F)F)N1 (stereo not drawn) | active: 18.4 µM | 
38 | COc1ccc(/C=C2/SC(=O)N(CC(O)Cn3c4ccccc4c4ccccc43)C2=O)cc1 (stereo not drawn) | inconclusive: 20.6 µM [inhibitor, single point] | 
39 | O=C(CN1CCN(C(=O)CNC(=O)c2ccc(N3CCCC3=O)cc2)CC1)Nc1ccccc1Cl |  | inactive: -1.77%
40 | O=C(NCc1ccc(F)cc1)C(=O)NCC1OCCN1S(=O)(=O)c1cccs1 (stereo not drawn) |  | inactive: -15.6%
41 | O=C(C1CC1)N(CCN(C(=O)C1CC1)c1ccccc1)c1ccccc1 | inconclusive: 23.1 µM [inhibitor, single point] | 
42 | Cc1ccc(-c2nc(Nc3cccc(O)c3)c3ccccc3n2)cc1 | active: 20.6 µM | 
43 | CC1(C)CC(=O)C(C=NCCO)=C(O)C1 | active: 18.4 µM | 
44 | CCCC(=O)Nc1cnc(NC(=O)c2cccc(F)c2)cc1C |  | inactive: -12.7%
45 | COCCOC(=O)c1c(C)nc(SCC(=O)Nc2ccc(C)cc2)c(C#N)c1-c1ccco1 | inconclusive: 29.1 µM [inhibitor, single point] | 
46 | COc1ccc(CCN(C)Cc2ccc(OCc3ccccc3)c(OC)c2)cc1OC | inconclusive: 18.4 µM [inhibitor, single point] | 
47 | Cc1ccc2c(c1)c1c(n2CC(O)Cn2nc(C)c(Br)c2C)CCCC1 (stereo not drawn) | inconclusive: 29.1 µM [inhibitor, single point] | 
48 | CCC(OCC(O)CN1CCN(CCN2C(=O)c3cccc4cccc(c34)C2=O)CC1)c1ccccc1 (stereo not drawn) | active: 10.3 µM | 
49 | CCOc1ccc(NC(=O)C2CCCN(S(=O)(=O)c3c(C)noc3C)C2)cc1 (stereo not drawn) |  | inactive: -14.2%
50 | O=C(COC(=O)c1cccs1)NC1CCCC1 |  | inactive: 4.61%

Row | SMILES | Potency | activity change, negative = growth inhibition
51 | CCC(=O)N1CCC1(C)C(=O)Nc1ccc2c(c1)CCN2C(C)=O (stereo not drawn) |  | inactive: 1.94%
52 | CCC1C/C(=C\c2cc(OC)c(OC)cc2OC)C(=O)/C(=C/c2cc(OC)c(OC)cc2OC)C1 (stereo not drawn) | inconclusive: 20.6 µM [inhibitor, single point] | 
53 | Cc1ccc(S(=O)(=O)N2CCN(C(=O)c3ccc(-n4cncn4)c([N+](=O)[O-])c3)CC2)c(C)c1 | inconclusive: 29.1 µM [inhibitor, single point] | 
54 | COc1ccc(CN(C(=O)CSc2nnc(-c3c[nH]c4ccccc34)o2)c2ccc(F)cc2)cc1OC | active: 8.2 µM | 
55 | COc1ccc(NC(=S)NC(NC(=O)c2ccccc2Cl)C(Cl)(Cl)Cl)c([N+](=O)[O-])c1 (stereo not drawn) | inconclusive: 29.1 µM [inhibitor, single point] | 
56 | Cc1cccn2c(=O)nc(SCC(=O)N3CC(C)OC(C)C3)nc12 (stereo not drawn) |  | inactive: 7.72%
57 | O=C(NCCOc1ccccc1)c1cccc(S(=O)(=O)N2CCN(Cc3ccccc3)CC2)c1 | inconclusive: 29.1 µM [inhibitor, single point] | 
58 | CSc1ncccc1C(=O)N1CCCC(Nc2ccc(C)c(C)c2)C1 (stereo not drawn) | inconclusive: 29.1 µM [inhibitor, single point] | 
59 | O=C(NCc1cccc(F)c1)Nc1nnc([C@@H]2C[C@H](O)[C@@H](CO)O2)s1 |  | inactive: 7.53%
60 | Cc1cccc2sc(NC(=O)CN3C(=O)c4ccccc4C3=O)nc12 |  | inactive: -14%
61 | Cc1csc2nc(CCNS(=O)(=O)c3ccccc3)cn12 |  | inactive: -1.02%
62 | CN(C)c1ccc(C(CNC(=O)c2ccccc2F)N2CCc3ccccc32)cc1 (stereo not drawn) | active: 10.3 µM | 
63 | CCCOc1ccc(C(=O)NNC(=O)CCNC(=O)c2ccco2)cc1OC |  | inactive: 4.06%
64 | CN(C)c1ccc(N/C(=N\S(=O)(=O)c2cccs2)c2ccccc2)cc1 | inconclusive: 2.91 µM [inhibitor, partial curve] | 
65 | COCCn1c(SCC(=O)NCc2ccc3c(c2)OCO3)nc2ccccc2c1=O |  | inactive: -15.4%
66 | N#Cc1ccccc1S(=O)(=O)N1CCCC(c2nc3c(nnn3Cc3cccc(Cl)c3)c(=O)[nH]2)C1 (stereo not drawn) | inconclusive: 29.1 µM [inhibitor, single point] | 
67 | COc1ccccc1NC(=O)c1ccc(NC2=NC3CS(=O)(=O)CC3S2)cc1 (stereo not drawn) |  | inactive: 10.7%
68 | O=c1[nH][nH]c(C(F)(F)F)c1C=NCc1cccc(Cl)c1 |  | inactive: 0.793%
69 | CCN(CC)Cc1c(C(=O)N/N=C/c2cccnc2)nnn1-c1nonc1N | inconclusive: 29.1 µM [inhibitor, single point] | 
70 | O=C(NC1CCCCC1)N1CCN(c2ccccc2Cl)CC1 | inconclusive: 20.6 µM [inhibitor, single point] | 
71 | COc1cccc(CNC(=O)c2ccc3c(c2)N(Cc2ccc(C(F)(F)F)cc2)C(=O)c2ccccc2S3)c1OC | inconclusive: 18.4 µM [inhibitor, single point] | 
72 | CCOC(=O)C1(CCCc2ccccc2)CCN(C(=O)C2CCCN(C(N)=O)C2)CC1 (stereo not drawn) |  | inactive: -2.57%
73 | COc1ccccc1CCNc1ncnc2sc(C(=O)N3CCCC3)c(C)c12 |  | inconclusive: -32.1% [inhibitor] [at 9.04 µM]

From PubChem BioAssay AID686979 (National Center for Advancing Translational Sciences (NCATS), 2013)
